Measurements from the antibiotic and cytotoxicity screens of Wong et al. (2023).
This is one part of the list.

Tested on: HSkMC (human skeletal muscle cells)
Experiment: cytotoxicity call (relative viability < 0.9)
Conditions: 10 µM

Row | SMILES | cytotoxicity call
1 | NCc1cnc(Nc2ccccc2)nc1 | inactive
2 | C[C@H](CO)N1C[C@H](C)[C@@H](CN(C)Cc2ccc(-c3ccccc3)cc2)Oc2ccc(NC(=O)Nc3cccc4ccccc34)cc2CC1=O | inactive
3 | CN1CCN(C(=O)C[C@H]2CC[C@@H]3[C@@H](COc4ccc(NC(=O)c5cscn5)cc4C(=O)N3C)O2)CC1 | inactive
4 | C[C@@H]1CCCCO[C@H](CN(C)S(=O)(=O)c2cccs2)[C@@H](C)CN([C@H](C)CO)C(=O)c2cc(NC(=O)Nc3ccccc3)ccc2O1 | inactive
5 | N[C@H]1CCCN(Cc2cccc(O)c2)C1 | inactive
6 | O=C(C[C@H]1C[C@@H]2c3cc(NS(=O)(=O)c4ccc(F)cc4)ccc3O[C@@H]2[C@H](CO)O1)NCc1ccc(Oc2ccccc2)cc1 | inactive
7 | CC(=O)OCC1=C(C(=O)O)N2C(=O)[C@@H](NC(=O)CSc3ccncc3)[C@H]2SC1 | inactive
8 | C[C@@H]1CN([C@@H](C)CO)C(=O)c2cc(NS(=O)(=O)c3cn(C)cn3)ccc2O[C@@H]1CN(C)S(=O)(=O)c1ccc(Cl)cc1 | inactive
9 | C[C@@H]1CN([C@H](C)CO)C(=O)c2cccc(NC(=O)c3ccc(-c4nccs4)cc3)c2O[C@H]1CN(C)C(=O)Nc1ccc2c(c1)OCO2 | inactive
10 | Cn1c(=O)c(C(=O)NCCO)c(O)c2ccccc21 | inactive
11 | C[C@@H]1CN([C@H](C)CO)C(=O)c2cccc(NS(=O)(=O)c3cn(C)cn3)c2O[C@@H]1CN(C)C(=O)Nc1ccc(F)cc1 | inactive
12 | C[C@H]1CN([C@@H](C)CO)C(=O)c2cccc(NC(=O)Nc3ccc(C(F)(F)F)cc3)c2O[C@H]1CN(C)C(=O)NC1CCCCC1 | inactive
13 | C[C@H]1CN([C@@H](C)CO)C(=O)c2cccc(NC(=O)Nc3cccc4ccccc34)c2O[C@H]1CN(C)Cc1ccc(-c2ccccc2)cc1 | inactive
14 | COc1ccc(NC(=O)Nc2ccc3c(c2)C(=O)N([C@H](C)CO)C[C@@H](C)[C@H](CN(C)Cc2ccc(C(F)(F)F)cc2)OCCCC[C@H](C)O3)cc1 | inactive
15 | C[C@@H]1CN([C@H](C)CO)C(=O)c2cccc(NC(=O)c3cnccn3)c2O[C@@H]1CN(C)C(=O)NC1CCCCC1 | inactive
16 | C[C@H](CO)N1C[C@H](C)[C@H](CN(C)Cc2ccc(C(F)(F)F)cc2)Oc2ccc(NC(=O)CCC(F)(F)F)cc2CC1=O | inactive
17 | C[C@@H]1CCCCO[C@H](CN(C)C(=O)Nc2cccc3ccccc23)[C@@H](C)CN([C@H](C)CO)C(=O)c2cc(NC(=O)C3CCCCC3)ccc2O1 | inactive
18 | Cn1cc(S(=O)(=O)Nc2ccc3c(c2)OCCO3)c(=O)n(C)c1=O | inactive
19 | C[C@@H]1CCCCO[C@@H](CN(C)C(=O)c2ccncc2)[C@@H](C)CN([C@H](C)CO)C(=O)c2cc(NC(=O)C3CCCCC3)ccc2O1 | inactive
20 | Nc1nc(Cl)nc(Cl)n1 | inactive

Row | SMILES | cytotoxicity call
21 | COc1ccc(S(=O)(=O)N(C)C[C@H]2Oc3ccc(NS(=O)(=O)c4c(C)noc4C)cc3C(=O)N([C@H](C)CO)C[C@@H]2C)cc1 | inactive
22 | C[C@H](CO)N1C[C@H](C)[C@@H](CN(C)Cc2ccc(C(=O)Nc3ccccc3N)cc2)Oc2ccc(NC(=O)Cc3ccccc3)cc2C1=O | inactive
23 | O=C([C@H]1CCCCN1)N1CCCC1 | inactive
24 | C[C@@H]1CN([C@H](C)CO)C(=O)c2cc(NC(=O)CCCN(C)C)ccc2O[C@@H](C)CCCCO[C@H]1CN(C)CC1CCCCC1 | inactive
25 | C[C@H](CO)N1C[C@H](C)[C@H](CN(C)S(=O)(=O)c2cn(C)cn2)Oc2ccc(NC(=O)Cc3cn(C)c4ccccc34)cc2CC1=O | inactive
26 | CCC[C@@H](O)C#Cc1cnc2c(c1)C(=O)N([C@H](C)CO)C[C@H](C)[C@H](CN(C)S(=O)(=O)c1cccs1)O2 | inactive
27 | Cc1ccc(S(=O)(=O)Nc2ccc3c(c2)C(=O)N([C@@H](C)CO)C[C@H](C)[C@@H](CN(C)C(=O)Nc2cccc4ccccc24)OCCCC[C@H](C)O3)cc1 | inactive
28 | C[C@@H]1CN([C@@H](C)CO)C(=O)CCCn2nncc2CO[C@H]1CN(C)C(=O)c1ccc(N2CCN(C)CC2)cc1 | inactive
29 | COc1ccc(NC(=O)Nc2ccc3c(c2)C(=O)N([C@H](C)CO)C[C@H](C)[C@H](CN(C)C(=O)NC2CCCCC2)OCCCC[C@H](C)O3)cc1 | inactive
30 | CO[C@H]1CN(C)C(=O)c2cc(NC(=O)C3CC3)ccc2OC[C@H](C)N(C(=O)CN2CCOCC2)C[C@H]1C | inactive
31 | C[C@H](CO)N1C[C@H](C)[C@H](CN(C)Cc2ccc(Cl)c(Cl)c2)Oc2ccc(NC(=O)CCCCCC(=O)Nc3ccccc3N)cc2CC1=O | inactive
32 | CCc1nc2ccc(C(=O)NC3CCN(Cc4ccccc4)CC3)cn2c1N(C)CCN1CCOCC1 | inactive
33 | c1ccc(CNC2CCCCC2)nc1 | inactive
34 | C=CCC[C@H](Cc1ccc(F)cc1)C(=O)O[C@H](CNC(=O)[C@@H](CC=C)CC(=O)N(CCO)Cc1ccccc1)c1ccccc1 | inactive
35 | COCC(=O)Nc1ccc2c(c1)C(=O)N(C)[C@@H]1CC[C@H](CC(=O)NCc3ccccc3Cl)O[C@@H]1CO2 | inactive
36 | C[C@H]1CCCCO[C@@H](CN(C)C(=O)Nc2cccc3ccccc23)[C@@H](C)CN([C@@H](C)CO)C(=O)c2cc(NC(=O)c3ccncc3)ccc2O1 | inactive
37 | C[C@H]1CN([C@@H](C)CO)C(=O)c2cc(NC(=O)Nc3ccc(F)cc3)ccc2O[C@@H]1CN(C)Cc1ccc(-c2ccccc2)cc1 | inactive
38 | COc1ccc([C@@H](NC(=O)C2CCN(Cc3ccc(Oc4ccccc4)cc3)CC2)c2ccccc2C)cn1 | inactive
39 | C[C@@H]1CN([C@@H](C)CO)C(=O)Cc2cc(NC(=O)Cc3cn(C)c4ccccc34)ccc2O[C@H]1CN(C)C(=O)Nc1ccc(C(F)(F)F)cc1 | inactive
40 | C[C@@H]1CN([C@H](C)CO)C(=O)c2cc(NC(=O)Nc3ccc4c(c3)OCO4)ccc2O[C@@H](C)CCCCO[C@@H]1CN(C)S(=O)(=O)c1ccc(Cl)cc1 | inactive
